Data on 57 molecules can be found in publication PMC4336329 (PLoS ONE, 2015).

Among all 310,000 compounds or so, about 14,000 (4.5%) showed an effect of 50% or more. The effect is printed as a negative number. This is one part of the list.
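Further: peak tail current of the secondary pulse compared with the same well before compound.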

In the assay the target is human ether-à-go-go-related gene (hERG) potassium channel (human, UniProt Q12809). The assay can be described thus: primary screen, population patch clamp on CHO cells stably expressing hERG.
human ether-à-go-go-related gene (hERG) potassium channel, sequence (Q12809 whole entry, looked up): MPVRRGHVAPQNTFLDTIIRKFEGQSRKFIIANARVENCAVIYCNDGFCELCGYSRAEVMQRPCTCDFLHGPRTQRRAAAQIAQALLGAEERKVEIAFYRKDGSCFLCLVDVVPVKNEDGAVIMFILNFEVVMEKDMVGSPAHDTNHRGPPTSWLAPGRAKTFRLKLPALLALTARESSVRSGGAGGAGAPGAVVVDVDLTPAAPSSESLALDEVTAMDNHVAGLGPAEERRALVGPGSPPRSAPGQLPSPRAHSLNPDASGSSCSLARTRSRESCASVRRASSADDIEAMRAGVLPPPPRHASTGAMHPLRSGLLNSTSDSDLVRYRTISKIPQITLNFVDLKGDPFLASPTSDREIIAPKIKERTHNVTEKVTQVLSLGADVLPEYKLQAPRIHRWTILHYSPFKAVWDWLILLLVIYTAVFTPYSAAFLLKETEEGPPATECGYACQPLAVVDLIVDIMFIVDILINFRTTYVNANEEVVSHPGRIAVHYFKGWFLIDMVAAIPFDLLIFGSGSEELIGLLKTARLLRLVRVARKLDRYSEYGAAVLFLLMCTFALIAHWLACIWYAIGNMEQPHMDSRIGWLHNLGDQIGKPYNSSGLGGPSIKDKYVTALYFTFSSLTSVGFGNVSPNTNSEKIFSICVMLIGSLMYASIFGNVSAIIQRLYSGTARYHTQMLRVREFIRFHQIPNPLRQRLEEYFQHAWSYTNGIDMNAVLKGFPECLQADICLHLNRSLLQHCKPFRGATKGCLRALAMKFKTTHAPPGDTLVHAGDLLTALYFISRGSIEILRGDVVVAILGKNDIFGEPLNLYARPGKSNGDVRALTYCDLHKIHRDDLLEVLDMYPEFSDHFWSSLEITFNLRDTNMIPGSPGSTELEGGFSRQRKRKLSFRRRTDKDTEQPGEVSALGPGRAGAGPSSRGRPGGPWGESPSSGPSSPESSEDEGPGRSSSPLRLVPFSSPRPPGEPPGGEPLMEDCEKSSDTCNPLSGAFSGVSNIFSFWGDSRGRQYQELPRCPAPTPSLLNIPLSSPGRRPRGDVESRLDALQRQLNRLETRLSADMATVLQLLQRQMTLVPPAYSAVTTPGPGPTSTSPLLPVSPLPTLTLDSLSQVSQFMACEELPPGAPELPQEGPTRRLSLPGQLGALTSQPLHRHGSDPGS
`CCOC(=O)c1c(NC(=O)CSc2nc3ccc(OC)cc3[nH]2)sc2c1CC(C)(C)NC2(C)C`: the “hERG current change (%, negative = inhibition) at 10uM” value is given as -48.5%.
To `CCN(CC)CCCNC(=O)c1cc2c(-c3cccc(OC)c3)nn(C)c2s1` belongs -44.7%; to `Cc1c(C(=O)OCC[N+]2(C)CCCCC2)oc2ccccc12.[I-]`, 14.3%.
As for `Fc1ccccc1N1CCN(c2ncnc3nc[nH]c23)CC1`, the “hERG current change (%, negative = inhibition) at 10uM” value is recorded as 13.4%.
As for `CCCC12CN3CC(C)(CN(C1)C31CCCCC1)C2=O`, the “hERG current change (%, negative = inhibition) at 10uM” value was 7.73%.
As for `CCOc1ccc(-n2c(SCc3cc(=O)oc4cc(C)c(C(C)C)cc34)nnc2-c2cccnc2)cc1`, the “hERG current change (%, negative = inhibition) at 10uM” value is reported as -37.2%.
For `O=C(CSc1ccc2ccccc2n1)NCc1ccc2c(c1)OCO2`, the “hERG current change (%, negative = inhibition) at 10uM” value is -4.68%.
As for `Cc1ccc(Cl)cc1N1CCN(C(=S)NCc2ccco2)CC1`, the “hERG current change (%, negative = inhibition) at 10uM” value came out at 37.1%.
For the molecule `Cc1ccc(N2CCN(S(=O)(=O)c3ccc(Cl)s3)CC2C)cc1` (stereo not drawn), the “hERG current change (%, negative = inhibition) at 10uM” value stood at 18.1%.
To `Cc1ccc(S(=O)(=O)N2CCN(C(=S)NCc3ccc4c(c3)OCO4)CC2)cc1` belongs -13.1%; to `Cc1nn(CCC#N)c2nc(C(F)(F)F)[nH]c(=O)c12`, -10.5%.
With `O=C(CS(=O)(=O)c1ccc(F)cc1)N1CCN(c2ccccc2)CC1`, the “hERG current change (%, negative = inhibition) at 10uM” value is -42.4%.
Regarding `COc1cccc(/C=N/n2c(-c3cc(C)[nH]n3)n[nH]c2=S)c1O`, the “hERG current change (%, negative = inhibition) at 10uM” value is 12.6%.
To `CCC1(c2ccccc2)NC(=O)N(CC(=O)Nc2ccc3c(C)cc(=O)oc3c2)C1=O` (stereo not drawn) belongs 14.7%.
As for `O=S(=O)(CC(CN1CCOCC1)N1CCOCC1)c1ccccc1` (stereo not drawn), the “hERG current change (%, negative = inhibition) at 10uM” value is recorded as -1.61%.
On to `O=C(Nc1nccs1)c1cc(S(=O)(=O)N2CCCCC2)ccc1Cl`, for which the “hERG current change (%, negative = inhibition) at 10uM” value is reported as 2.28%.
With `CC(OC(=O)CC1Sc2ccccc2NC1=O)C(=O)NC1CCCC1` (stereo not drawn), the “hERG current change (%, negative = inhibition) at 10uM” value turned out to be 6.22%.
As to `Cn1c(N)c(C(=O)COC(=O)CNS(=O)(=O)c2cccc(Cl)c2)c(=O)n(C)c1=O`, the “hERG current change (%, negative = inhibition) at 10uM” value was -13.2%.
As to `CN1C(=O)/C(=C/c2ccccc2F)Sc2ccc(C(=O)N3CCCC3)cc21`, the “hERG current change (%, negative = inhibition) at 10uM” value is -8.83%.
On to `COc1ccc(OCc2n[nH]c(=S)n2N)cc1`, for which the “hERG current change (%, negative = inhibition) at 10uM” value stood at 37.8%.
For `N#CCSc1nc2sc3c(c2c(=O)n1C1CCCCC1)CCCC3`, the “hERG current change (%, negative = inhibition) at 10uM” value is -0.102%.
As for `CCc1ccccc1N(CC(=O)NCC1CCCO1)C(=O)CCC(=O)Nc1nccs1` (stereo not drawn), the “hERG current change (%, negative = inhibition) at 10uM” value stood at 27%.
For `CN(CC(=O)Nc1ccccc1Br)C(=O)c1ccc(-c2ccc(Cl)cc2)o1`, the “hERG current change (%, negative = inhibition) at 10uM” value was 5.51%.
The figure for `Cc1cc(=O)n(CC(C)O)c(O)c1C#N` (stereo not drawn) is 16.8%.
For the molecule `COc1ccccc1N1CCN(Cc2cccc(OC)c2OC)CC1`, the “hERG current change (%, negative = inhibition) at 10uM” value is listed as -12.5%.
Turning to `O=c1[nH]c(=O)n(CCC2=CCCCC2)c(O)c1C=NCCCn1ccnc1`, the “hERG current change (%, negative = inhibition) at 10uM” value is reported as -17.6%.
With `Cc1cccc2nc(COc3ccc4ccccc4c3Br)cn12`, the “hERG current change (%, negative = inhibition) at 10uM” value is -9.01%.
As to `Cc1ccc(C(=O)O/N=C\c2ccc(N3CCCCC3)c([N+](=O)[O-])c2)cc1`, the “hERG current change (%, negative = inhibition) at 10uM” value turned out to be 12.8%.
As for `Cc1ccccc1Nc1nc(N)nc(COC(=O)/C=C/c2ccco2)n1`, the “hERG current change (%, negative = inhibition) at 10uM” value was -1.28%.
The figure for `Cc1cccn2c(=O)c3cc(C(=O)NC4CCCC4)c(=N)n(Cc4ccc(F)cc4)c3nc12` is -68.2%; for `CC(=O)c1c(N2CCCC2)nc(=S)n(-c2ccccc2)c1C` it is -0.251%.
On to `O=C(NCCCc1ccccc1)C(=O)NCC1OCCN1S(=O)(=O)c1cc(F)ccc1F` (stereo not drawn), for which the “hERG current change (%, negative = inhibition) at 10uM” value is reported as -15%.
As for `CCOc1ccccc1CNC(=O)CCCC(=O)n1nc(C)c2ccccc21`, the “hERG current change (%, negative = inhibition) at 10uM” value came to 16%.
Consider `O=C(COc1ccc(S(=O)(=O)N2CCCC2)cc1Cl)NCc1ccccn1`, for which the “hERG current change (%, negative = inhibition) at 10uM” value was found to be 4.66%.
Take `C[C@H](NC(=O)N1CCn2c1nc1ccccc12)C(=O)NCC1CCCO1` (stereo partly drawn): the “hERG current change (%, negative = inhibition) at 10uM” value amounted to 20.8%.
Regarding `CC1=Nn2c(nnc2-c2cccs2)SC1`, the “hERG current change (%, negative = inhibition) at 10uM” value stood at 4.76%.
Regarding `CCN(CC)c1ccc(C=N/C(C#N)=C(\N)C#N)cc1`, the “hERG current change (%, negative = inhibition) at 10uM” value is reported as -3.71%.
For `COc1ccc(/C=C2\CCC(C3CCCC3)C2=O)c(OC)c1OC` (stereo not drawn), the “hERG current change (%, negative = inhibition) at 10uM” value amounted to 6.95%.
As for `Cc1nn(-c2ccccc2)c(Cl)c1C(=O)NCc1ccccc1F`, the “hERG current change (%, negative = inhibition) at 10uM” value is 21.2%.
For the molecule `CCOC(=O)c1ccc2c(c1)n(CC)c(C)[n+]2CC.[I-]`, the “hERG current change (%, negative = inhibition) at 10uM” value amounted to 23.7%.
Turning to `CSc1ncc(Cl)c(C(=O)Nc2ccc(NC(C)=O)cc2)n1`, the “hERG current change (%, negative = inhibition) at 10uM” value is -16.5%.
The figure for `CCn1c(CSc2nc(C)cs2)nc2cc(S(=O)(=O)N(C)C)ccc21` is -13.8%; for `Cc1cccnc1Sc1c([N+](=O)[O-])ncn1C` it is 9.1%; for `O=C(NC(=S)Nc1ccc(Br)cn1)c1cccs1` it is 17.3%.
In the case of `Nc1c(Cl)ncnc1NCc1cccnc1`, the “hERG current change (%, negative = inhibition) at 10uM” value was found to be 13.1%.
On to `CCOC(=O)C1=C(C)NC(C)=C(C(=O)OCC)C1C(=O)OCC(=O)NC1(C#N)CCCCC1`, for which the “hERG current change (%, negative = inhibition) at 10uM” value is -22.1%.
Regarding `COc1ccc(NC(=O)Cn2nc(C(F)(F)F)c3c2CCCC3)cc1OC`, the “hERG current change (%, negative = inhibition) at 10uM” value was -9.93%.
Turning to `O=C(CN1CCOCC1)N/N=C/c1cc2ccccc2nc1Cl`, the “hERG current change (%, negative = inhibition) at 10uM” value was -7.14%.
The figure for `BrC(=C\c1ccccc1)/C=N/Nc1ccc2nncn2n1` is -21.6%; for `COc1ccc(CC(=O)NNC(=O)CCc2ccccc2)cc1` it is 10.7%.
`CCCCn1nnnc1SCC(=O)Nc1cccc(C)n1`: the “hERG current change (%, negative = inhibition) at 10uM” value is -15.2%.
The figure for `O=C(Nc1ccc(Br)cc1Cl)NC1CC1` is 1.3%; for `Cc1ccc(-c2nc3ccccc3o2)cc1NC(=O)c1ccc2c(c1)OCO2` it is -13.3%; for `O=C(N/N=C/c1ccc([N+](=O)[O-])s1)c1cccnc1` it is 5.77%.
To `COc1ccc(CCN(C)C(=O)C2CCCN(C3CCN(Cc4ccccc4)CC3)C2)cc1OC` (stereo not drawn) belongs -17.1%; to `CN1C(=O)C2(C(C#N)=C(N)N(c3ccc(Cl)cc3)C3=C2C(=O)CC(C)(C)C3)c2ccccc21` (stereo not drawn), -6.79%; to `CC1=C(C(=O)OCCOC(C)C)C(c2cc3c(cc2Br)OCO3)CC(=O)N1` (stereo not drawn), 0.66%.
